# Measurements from the supplement of paper PMC4166925.
# ± gives the standard deviation of the averaged measurements. Whole data set: some 33,000 sequences, median “E-score (dimensionless, -0.5 to 0.5)” near -0.046, cut for the highest 2% near 0.36. This is one part of the list.
# Tested on: T1, SpTbr T-box DNA-binding domain (GST fusion)
# T1 sequence: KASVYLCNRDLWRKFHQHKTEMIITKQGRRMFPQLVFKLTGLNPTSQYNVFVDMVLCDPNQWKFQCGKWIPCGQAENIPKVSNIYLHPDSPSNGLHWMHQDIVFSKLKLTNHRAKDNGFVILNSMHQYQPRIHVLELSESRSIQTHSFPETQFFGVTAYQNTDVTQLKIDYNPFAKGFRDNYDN
# Experiment: PBM E-score of 8-mer (E-score (dimensionless, -0.5 to 0.5)); Tbr is Tbrain of the sea star Patiria miniata (Pm) or the sea urchin Strongylocentrotus purpuratus (Sp); higher = stronger binding preference; most listed sequences are background and not binding sites
# Conditions: the construct has about 5 more residues each side
# Procedure, shortened: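 Universal Agilent oligonucleotide arrays, made double-stranded by primer extension, were incubated with 200 nM GST-fused Tbr T-box DNA-binding domain in PBS (pH 7.5). The protein was expressed in BL21 E. coli at 20 °C and purified by glutathione affinity chromatography. After scanning and quantification, the Universal PBM Analysis Suite assigned an enrichment E-score to each ungapped 8-mer, averaged over duplicate arrays.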
row,Sequence,PBM E-score of 8-mer
1,ATCTTAAA,-0.0879 ± 0.054
2,GAGCCCCC,-0.215 ± 0.031
3,CCTTGCTA,-0.0565 ± 0.096
4,CAAGCGGA,-0.158 ± 0.079
5,GGGGCACC,-0.127 ± 0.1
6,ATACAATG,-0.0308 ± 0.011
7,AATGGGAA,-0.188 ± 0.032
8,AACATGGC,-0.215 ± 0.036
9,CGGTGAAA,-0.274 ± 0.042
10,AAGAAGAT,-0.0736 ± 0.1
11,AAAGTAAA,-0.172 ± 0.075
12,ATGAGTAA,-0.0943 ± 0.0023
13,AGAAAGTG,0.287 ± 0.06
14,ATTGCATC,-0.214 ± 0.016
15,CTTTTCCC,-0.218 ± 0.16
16,ATCACAAC,0.299 ± 0.025
17,TCTGCAAA,-0.0679 ± 0.031
18,AGCGCCGA,0.152 ± 0.073
19,AGAGCCTA,-0.332 ± 0.033
20,GTACATAC,-0.0384 ± 0.00061
21,GCAATAGA,-0.0798 ± 0.035
22,AACACGTT,0.367 ± 0.044

row,Sequence,PBM E-score of 8-mer
1,CTCCTTTA,-0.0308 ± 0.006
2,ATGCTATA,-0.168 ± 0.055
3,AAGAAATA,0.13 ± 0.06
4,GCTCCACA,-0.00039 ± 0.012
5,GAAAAAGC,-0.208 ± 0.11
6,ACGAAAAG,-0.178 ± 0.028
7,CAACTGAC,0.182 ± 0.023
8,GCCATGCC,-0.0317 ± 0.011
9,GCATTGGA,-0.206 ± 0.049
10,GAAGGGTA,-0.00279 ± 0.061
11,ATACTAAT,-0.12 ± 0.019
12,CATAATAC,-0.00448 ± 0.0078
13,CAGATATG,-0.176 ± 0.05
14,ATTCTAGC,-0.125 ± 0.003
15,TCAAAGAA,-0.155 ± 0.01
16,GTGGGTTA,0.065 ± 0.072
17,AGGCTCAC,-0.0576 ± 0.023
18,CTTCGGAA,-0.249 ± 0.035
19,GACCCCCC,-0.274 ± 0.013
20,ATACTTCG,0.0544 ± 0.074
21,AGCATTTC,-0.00498 ± 0.015
22,CACTTAAA,0.193 ± 0.072

row,Sequence,PBM E-score of 8-mer
1,TAAAAGCA,-0.117 ± 0.057
2,AGAATAAT,-0.173 ± 0.025
3,TCTTGGAA,-0.204 ± 0.0074
4,AGGCCACC,-0.0979 ± 0.0063
5,AAGCGCCG,0.0262 ± 0.033
6,CCAACAAC,0.125 ± 0.055
7,GATCTTGA,0.0838 ± 0.011
8,GGACGAAA,-0.0373 ± 0.096
9,AAAGTTGA,0.0259 ± 0.0017
10,CCTCTACA,-0.0916 ± 0.1
11,ATGTTTGG,-0.108 ± 0.06
12,AATCCTCC,0.0597 ± 0.00073
13,ACGGCTGA,-0.172 ± 0.044
14,CCTTCTTC,0.0794 ± 0.076
15,AGCGACAC,0.332 ± 0.022
16,AACTGTCG,0.241 ± 0.013
17,AGCCGACA,0.154 ± 0.0023
18,CTATCTCC,-0.112 ± 0.027
19,CGGTGATC,-0.0462 ± 0.038
20,TGAACGCA,-0.228 ± 0.0055
21,AATCTTCG,-0.114 ± 0.064
22,CAGGTGGG,0.2825 ± 0.00043

row,Sequence,PBM E-score of 8-mer
1,CAAGATAC,-0.0448 ± 0.013
2,ATAAGCAT,-0.142 ± 0.028
3,ATGTATAA,-0.0389 ± 0.013
4,ATGGAAGA,-0.324 ± 0.029
5,AAGCGATG,-0.017 ± 0.026
6,GGAGATTA,-0.0793 ± 0.016
7,TGGGCCAA,-0.11 ± 0.026
8,GAAAACAA,-0.0618 ± 0.05
9,ATGTGGGC,-0.0132 ± 0.0053
10,CATTACGC,0.0346 ± 0.071
11,CGATAGGA,-0.0501 ± 0.0023
12,ACGGACGG,-0.107 ± 0.064
13,CACAGCTA,0.327 ± 0.014
14,AATCCCAC,0.151 ± 0.013
15,GCTCCAGA,-0.261 ± 0.008
16,CCCCAGCC,-0.0674 ± 0.013
17,CGTCGCCC,0.149 ± 0.072
18,CGCACCCC,0.32 ± 0.044
19,TTAGCCAA,-0.117 ± 0.0016
20,TAACAGAA,-0.0518 ± 0.012
